Test results from paper PMC4752240.
These are yes or no findings as the source states them, for the method shown. Sequences can lack the tags named with a protein.

Columns and labels:
Test in all cases: two-hybrid; bait fused with the GAL4 DNA binding domain (pDEST32), prey fused with the GAL4 activation domain (pDEST22); mating of yeast strains AH109 and Y187; growth on -His (weak interaction) or -His -Ade (strong interaction); three replicates
[1] = molecular target: T1, APC10, yeast two-hybrid fusion (UniProt Q9ZPW2)
T1 sequence: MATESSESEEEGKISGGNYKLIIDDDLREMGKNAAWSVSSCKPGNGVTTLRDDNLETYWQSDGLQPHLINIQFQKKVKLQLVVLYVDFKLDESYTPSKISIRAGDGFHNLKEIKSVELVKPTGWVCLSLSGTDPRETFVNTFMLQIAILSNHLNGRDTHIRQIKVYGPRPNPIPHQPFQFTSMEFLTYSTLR

[2] = molecular target: T2, CCS52A2, yeast two-hybrid fusion (UniProt Q8VZS9)
T2 sequence: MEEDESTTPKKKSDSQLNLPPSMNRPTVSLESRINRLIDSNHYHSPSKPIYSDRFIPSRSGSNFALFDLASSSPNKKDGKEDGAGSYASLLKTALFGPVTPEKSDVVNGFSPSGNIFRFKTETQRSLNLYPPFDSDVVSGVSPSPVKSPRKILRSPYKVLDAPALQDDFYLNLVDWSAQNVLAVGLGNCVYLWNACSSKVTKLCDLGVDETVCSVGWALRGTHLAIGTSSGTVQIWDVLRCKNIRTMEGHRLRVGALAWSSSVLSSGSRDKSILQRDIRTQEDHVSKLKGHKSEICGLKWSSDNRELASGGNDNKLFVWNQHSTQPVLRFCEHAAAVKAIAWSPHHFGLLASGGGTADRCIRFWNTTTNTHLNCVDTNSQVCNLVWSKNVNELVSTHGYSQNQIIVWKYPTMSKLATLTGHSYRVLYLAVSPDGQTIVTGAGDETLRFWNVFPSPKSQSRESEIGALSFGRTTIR

[3] = molecular target: T3, OSD1, yeast two-hybrid fusion (Arabidopsis thaliana) (UniProt Q9M2R1)
T3 sequence: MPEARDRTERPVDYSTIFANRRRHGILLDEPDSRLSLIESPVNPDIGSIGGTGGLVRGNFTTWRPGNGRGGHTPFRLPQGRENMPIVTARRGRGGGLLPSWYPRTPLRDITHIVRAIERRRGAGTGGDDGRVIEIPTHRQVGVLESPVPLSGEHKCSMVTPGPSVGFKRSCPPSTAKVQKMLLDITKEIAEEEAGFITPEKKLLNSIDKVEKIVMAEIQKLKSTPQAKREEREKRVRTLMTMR

[4] = molecular target: T4, APC11, yeast two-hybrid fusion (UniProt Q9M9L0)
T4 sequence: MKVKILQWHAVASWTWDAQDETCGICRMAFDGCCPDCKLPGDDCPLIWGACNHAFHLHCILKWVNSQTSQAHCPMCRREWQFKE

[5] = molecular target: T5, CCS52A1, yeast two-hybrid fusion (UniProt Q8L3Z8)
T5 sequence: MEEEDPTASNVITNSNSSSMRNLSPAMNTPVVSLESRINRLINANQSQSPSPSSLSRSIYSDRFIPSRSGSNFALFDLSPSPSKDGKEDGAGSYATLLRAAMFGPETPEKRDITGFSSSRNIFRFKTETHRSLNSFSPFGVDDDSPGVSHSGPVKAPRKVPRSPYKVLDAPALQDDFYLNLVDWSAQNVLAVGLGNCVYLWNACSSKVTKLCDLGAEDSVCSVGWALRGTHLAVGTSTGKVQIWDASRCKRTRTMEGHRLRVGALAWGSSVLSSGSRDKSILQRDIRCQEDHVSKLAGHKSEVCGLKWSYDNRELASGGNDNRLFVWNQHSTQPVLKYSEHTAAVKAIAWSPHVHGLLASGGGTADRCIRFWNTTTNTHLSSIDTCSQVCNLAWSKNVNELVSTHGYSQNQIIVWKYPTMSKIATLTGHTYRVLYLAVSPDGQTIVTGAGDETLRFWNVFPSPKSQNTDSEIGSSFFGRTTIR

[6] = molecular target: T6, PANS1, yeast two-hybrid fusion (UniProt Q9LJG6)
T6 sequence: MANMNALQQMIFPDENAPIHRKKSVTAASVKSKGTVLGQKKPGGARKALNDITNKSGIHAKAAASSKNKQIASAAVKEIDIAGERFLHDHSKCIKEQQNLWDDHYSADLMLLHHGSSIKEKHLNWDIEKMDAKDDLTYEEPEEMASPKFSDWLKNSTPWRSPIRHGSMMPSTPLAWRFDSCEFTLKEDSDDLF

[7] = molecular target: T7, SAMBA, yeast two-hybrid fusion (UniProt Q9C613)
T7 sequence: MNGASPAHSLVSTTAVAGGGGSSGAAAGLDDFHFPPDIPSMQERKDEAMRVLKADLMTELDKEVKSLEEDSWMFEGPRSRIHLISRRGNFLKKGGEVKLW

Measured: binding

B1: TDM1 (THREE DIVISION MUTANT1), yeast two-hybrid fusion (protein, UniProt Q9SUC3 1-434)
chain: MCPCVERRAPPGVYYTPPPARTSDHVAAMPMTERRRPPYSCSSSSERRDPFHIVHKVPSGDSPYVRAKHAQLIDKDPNRAISLFWTAINAGDRVDSALKDMAVVMKQLGRSDEGIEAIKSFRYLCSFESQDSIDNLLLELYKKSGRIEEEAVLLEHKLQTLEQGMGFGGRVSRAKRVQGKHVIMTIEQEKARILGNLGWVHLQLHNYGIAEQHYRRALGLERDKNKLCNLAICLMRMSRIPEAKSLLDDVRDSPAESECGDEPFAKSYDRAVEMLAEIESKKPEADLSEKFYAGCSFVNRMKENIAPGTANKNYSDVSSSPASVRPNSAGLYTQPRRCRLFEEETRGAARKLLFGKPQPFGSEQMKILERGEEEPMKRKKLDQNMIQYLHEFVKDTADGPKSESKKSWADIAEEEEAEEEEEERLQGELKTAEM
no binding: all assays above
